Experimental data as given in the supplement of paper PMC12067230.
The data scatter; read single values as rough.

Experiment: amyloid nucleation score relative to library mode (yeast Sup35 reporter selection) (log enrichment difference); higher = more amyloid nucleation; sequences are the first 22 residues of the Bri2 peptide extended by up to 12 random residues
Details: random library (experiment): 1;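 active = nucleation score significantly above 0 at FDR 0.05; inactive = not significantly above 0 or absent from output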
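Further: [psi-pin-] Saccharomyces cerevisiae expressing SupN fusions, induced by 100 µM Cu2SO4, selected 7 d at 30 °C without adenine and uracil, scored by deep sequencing of output versus input.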

Question: For EASNCFAIRHFENKFAVETLICRNLLRYRHIVRW, which amyloid nucleation score is on record?
Answer: inactive

Question: Which amyloid nucleation score does the source give for EASNCFAIRHFENKFAVETLICRNMGAFIWTWYS here?
Answer: inactive

Question: For EASNCFAIRHFENKFAVETLICRNMKSMCMWSFR, which amyloid nucleation score is on record?
Answer: -0.0479

Question: With EASNCFAIRHFENKFAVETLICRNNHLFVVLDLR as the sequence, how does the amyloid nucleation score read?
Answer: inactive

Question: Which amyloid nucleation score does the source give for EASNCFAIRHFENKFAVETLICRNQITLYGELVM here?
Answer: 4.44

Question: With EASNCFAIRHFENKFAVETLICRNQRREAPEPTG as the sequence, how does the amyloid nucleation score read?
Answer: inactive

Question: Which amyloid nucleation score does the source give for EASNCFAIRHFENKFAVETLICRNVDIGSQRVTA here?
Answer: inactive

Question: For EASNCFAIRHFENKFAVETLICRNVNVFITWSSQ, which amyloid nucleation score is on record?
Answer: 4.81

Question: Which amyloid nucleation score does the source give for EASNCFAIRHFENKFAVETLICRNVRW here?
Answer: inactive

Question: For EASNCFAIRHFENKFAVETLICRNVSPRYKGKWW, which amyloid nucleation score is on record?
Answer: inactive

Question: For EASNCFAIRHFENKFAVETLICRNVVSDLTVVRH, which amyloid nucleation score is on record?
Answer: 6.41

Question: With EASNCFAIRHFENKFAVETLICRNVWQAGQRRAN as the sequence, how does the amyloid nucleation score read?
Answer: -0.0664

Question: Which amyloid nucleation score does the source give for EASNCFAIRHFENKFAVETLICRP here?
Answer: inactive

Question: For EASNCFAIRHFENKFAVETLICRPAGVCQHVQGG, which amyloid nucleation score is on record?
Answer: inactive

Question: Which amyloid nucleation score does the source give for EASNCFAIRHFENKFAVETLICRPESLLGPKLRC here?
Answer: inactive

Question: For EASNCFAIRHFENKFAVETLICRPFGTQQLCLVG, which amyloid nucleation score is on record?
Answer: 0.582

Question: Which amyloid nucleation score does the source give for EASNCFAIRHFENKFAVETLICRPFMRLRLRPRV here?
Answer: inactive

Question: Which amyloid nucleation score does the source give for EASNCFAIRHFENKFAVETLICRPFWECNCSYGR here?
Answer: 7.4

Question: With EASNCFAIRHFENKFAVETLICRPGLTTVRRRAS as the sequence, how does the amyloid nucleation score read?
Answer: 0.502

Question: Which amyloid nucleation score does the source give for EASNCFAIRHFENKFAVETLICRPGNGFTTRLSE here?
Answer: inactive

Question: For EASNCFAIRHFENKFAVETLICRPHGGMCQTARL, which amyloid nucleation score is on record?
Answer: inactive

Question: Which amyloid nucleation score does the source give for EASNCFAIRHFENKFAVETLICRPKGRVWVGGVW here?
Answer: inactive

Question: Which amyloid nucleation score does the source give for EASNCFAIRHFENKFAVETLICRPLHSLIVVPMC here?
Answer: inactive

Question: Which amyloid nucleation score does the source give for EASNCFAIRHFENKFAVETLICRPLVAFVMDIGS here?
Answer: inactive

Question: For EASNCFAIRHFENKFAVETLICRPRCGPFTDLWR, which amyloid nucleation score is on record?
Answer: 1.47

Question: With EASNCFAIRHFENKFAVETLICRPRFWEVFLAVS as the sequence, how does the amyloid nucleation score read?
Answer: inactive

Question: Which amyloid nucleation score does the source give for EASNCFAIRHFENKFAVETLICRPRLSVSGAGS here?
Answer: inactive

Question: With EASNCFAIRHFENKFAVETLICRPRWGWWVCESG as the sequence, how does the amyloid nucleation score read?
Answer: inactive

Question: For EASNCFAIRHFENKFAVETLICRPTGPWGVVASA, which amyloid nucleation score is on record?
Answer: inactive

Question: With EASNCFAIRHFENKFAVETLICRPVGRSTGVVK as the sequence, how does the amyloid nucleation score read?
Answer: inactive

Question: With EASNCFAIRHFENKFAVETLICRPYGVSTEVRGA as the sequence, how does the amyloid nucleation score read?
Answer: 4.92

Question: Which amyloid nucleation score does the source give for EASNCFAIRHFENKFAVETLICRPYKRTWRGAFL here?
Answer: inactive

Question: Which amyloid nucleation score does the source give for EASNCFAIRHFENKFAVETLICRQ here?
Answer: inactive

Question: For EASNCFAIRHFENKFAVETLICRQERCFGFWSR, which amyloid nucleation score is on record?
Answer: 4.59

Question: Which amyloid nucleation score does the source give for EASNCFAIRHFENKFAVETLICRQEWDGSWVWQ here?
Answer: 1.99

Question: With EASNCFAIRHFENKFAVETLICRQG as the sequence, how does the amyloid nucleation score read?
Answer: inactive

Question: With EASNCFAIRHFENKFAVETLICRQLPLPWAMPRD as the sequence, how does the amyloid nucleation score read?
Answer: inactive

Question: With EASNCFAIRHFENKFAVETLICRQLQDTLLMPCE as the sequence, how does the amyloid nucleation score read?
Answer: inactive

Question: Which amyloid nucleation score does the source give for EASNCFAIRHFENKFAVETLICRQLTRVWLWGML here?
Answer: inactive

Question: With EASNCFAIRHFENKFAVETLICRQRRQGVRGKWG as the sequence, how does the amyloid nucleation score read?
Answer: 0.0198

Question: With EASNCFAIRHFENKFAVETLICRQSLAAWTPVGR as the sequence, how does the amyloid nucleation score read?
Answer: 0.573

Question: Which amyloid nucleation score does the source give for EASNCFAIRHFENKFAVETLICRQTSLFLPVMYG here?
Answer: inactive

Question: With EASNCFAIRHFENKFAVETLICRQTTYTVVVRL as the sequence, how does the amyloid nucleation score read?
Answer: inactive

Question: For EASNCFAIRHFENKFAVETLICRQWASHPLSACW, which amyloid nucleation score is on record?
Answer: inactive

Question: Which amyloid nucleation score does the source give for EASNCFAIRHFENKFAVETLICRR here?
Answer: 0.0191

Question: Which amyloid nucleation score does the source give for EASNCFAIRHFENKFAVETLICRRCWCKCIAR here?
Answer: inactive

Question: For EASNCFAIRHFENKFAVETLICRREELRTPVLDR, which amyloid nucleation score is on record?
Answer: inactive

Question: Which amyloid nucleation score does the source give for EASNCFAIRHFENKFAVETLICRRER here?
Answer: inactive

Question: With EASNCFAIRHFENKFAVETLICRREVNLYMGLCG as the sequence, how does the amyloid nucleation score read?
Answer: -0.25

Question: With EASNCFAIRHFENKFAVETLICRRFIMV as the sequence, how does the amyloid nucleation score read?
Answer: inactive

Question: Which amyloid nucleation score does the source give for EASNCFAIRHFENKFAVETLICRRFVRSLRNSDR here?
Answer: inactive

Question: For EASNCFAIRHFENKFAVETLICRRGSPVGLHMHG, which amyloid nucleation score is on record?
Answer: inactive

Question: Which amyloid nucleation score does the source give for EASNCFAIRHFENKFAVETLICRRGYCGWAGLSR here?
Answer: inactive

Question: With EASNCFAIRHFENKFAVETLICRRHERQ as the sequence, how does the amyloid nucleation score read?
Answer: inactive

Question: For EASNCFAIRHFENKFAVETLICRRHTCDFSRSGN, which amyloid nucleation score is on record?
Answer: inactive

Same assay, conditions: random library (experiment): 2

Question: Which amyloid nucleation score does the source give for EASNCFAIRHFENKFAVETLICRNIMRRS here?
Answer: inactive

Question: Which amyloid nucleation score does the source give for EASNCFAIRHFENKFAVETLICRNIVDESMEYRG here?
Answer: 2.77

Question: Which amyloid nucleation score does the source give for EASNCFAIRHFENKFAVETLICRNKTAFLVCGT here?
Answer: inactive

Question: For EASNCFAIRHFENKFAVETLICRNLNYAS, which amyloid nucleation score is on record?
Answer: 4.91
